{
  "source": "the RNAGym collection of RNA variant scans (doi:10.1093/nar/gkz1192)",
  "parents": {"B1": {"name": "CPEB3 Ribozyme (parent)", "chain": "UAACAGGGGGCCACAGCAGAAGCGUUCACGUCGCAGCCCCUGUCAGAUUCUGGUGAAUCUGCGAAUUCUGCUGUAUAUCUC"}},
  "note": "The source gives no read counts; variants with many changes may rest on few reads.",
  "data": [
    {"variants_of": "B1", "assay": "self-cleavage, relative activity (ratio to wild type); higher = more cleavage; in vitro, sequencing", "summary_of_the_method": "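After error-prone PCR and barcoding, CPEB3 ribozyme mutant libraries were transcribed with T7 RNA polymerase at 37°C for 5 hours, then given 15 min with DNase I before an EDTA stop, and they cleaved during both steps. Reverse transcription with template switching preceded Illumina sequencing. Relative activity divides a variant's cleaved/total read fraction by the unmutated ribozyme's. At least 5 reads were required per variant, and three batches were averaged.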", "values": [
      {"variant": "UAACAGGGGGCCACAGCAGAAGCGUUCACGUCGCAGCCCCUGUCUGAUUCUGGUAGGUCUGCGAAUUCAGCUGUAUAUCCC", "note": "[A45U G55A A56G A57G U69A U80C]", "self-cleavage": 0.12},
      {"variant": "UAACAGGGGGCCACAGCAGAAGCGUUCACGUCGCAGCCCCUGUCUGAUUCUGGUGAAUCUGCAGAUUCUGCUGUACAUCUC", "note": "[A45U G63A A64G U76C]", "self-cleavage": 0.16},
      {"variant": "UAACAGGGGGCCACAGCAGAAGCGUUCACGUCGCAGCCCCUGUCUGAUUCUGGUGAAUCUGCCGAUUCUGCUGUAUAUCUC", "note": "[A45U G63C A64G]", "self-cleavage": 0.59},
      {"variant": "UAACAGGGGGCCACAGCAGAAGCGUUCACGUCGCAGCCCCUGUCUGAUUCUGGUGAAUCUGCGAAUUCUGCUCUGUAUCUC", "note": "[A45U G73C A75G]", "self-cleavage": 0.78},
      {"variant": "UAACAGGGGGCCACAGCAGAAGCGUUCACGUCGCAGCCCCUGUCUGAAUCUGGUGAAUCUGCGGAUUCUGCUGUAUAUCCC", "note": "[A45U U48A A64G U80C]", "self-cleavage": 0.16},
      {"variant": "UAACAGGGGGCCACAGCAGAAGCGUUCACGUCGCAGCCCCUGUCUGAAACUGGUGAAUCCGCGAAUUCCGCUGUAUAUCUC", "note": "[A45U U48A U49A U60C U69C]", "self-cleavage": 0.2},
      {"variant": "UAACAGGGGGCCACAGCAGAAGCGUUCACGUCGCAGCCCCUGUCUGAAUCUGGUGAAUCUGCGAAAUCUGCUGUAUAUCUC", "note": "[A45U U48A U66A]", "self-cleavage": 0.13},
      {"variant": "UAACAGGGGGCCACAGCAGAAGCGUUCACGUCGCAGCCCCUGUCUGACUCUGGUGGAUCUGCGAAUUCUGCUGUAUACCUC", "note": "[A45U U48C A56G U78C]", "self-cleavage": 0.13},
      {"variant": "UAACAGGGGGCCACAGCAGAAGCGUUCACGUCGCAGCCCCUGUCUGACUCUGGUGACCCUGCGAAUCCCGCUGUAUAUCUC", "note": "[A45U U48C A57C U58C U67C U69C]", "self-cleavage": 0.06},
      {"variant": "UAACAGGGGGCCACAGCAGAAGCGUUCACGUCGCAGCCCCUGUCUGACUCUGGUGAAUCUGCGGAUUCUGCUGUACAUCUC", "note": "[A45U U48C A64G U76C]", "self-cleavage": 0.14},
      {"variant": "UAACAGGGGGCCACAGCAGAAGCGUUCACGUCGCAGCCCCUGUCUGACUCUGGUGAAUCUGGGAAUUCUGCCGUAUAUCUC", "note": "[A45U U48C C62G U72C]", "self-cleavage": 0.22},
      {"variant": "UAACAGGGGGCCACAGCAGAAGCGUUCACGUCGCAGCCCCUGUCUGACUCCGGUGAAUCUGCGAAUUCUGCUGUGUAUCCC", "note": "[A45U U48C U51C A75G U80C]", "self-cleavage": 0.13},
      {"variant": "UAACAGGGGGCCACAGCAGAAGCGUUCACGUCGCAGCCCCUGUCUGACUCUGGUGAAUCAGCGAAUUCUGCUGUAUAUCUC", "note": "[A45U U48C U60A]", "self-cleavage": 0.63},
      {"variant": "UAACAGGGGGCCACAGCAGAAGCGUUCACGUCGCAGCCCCUGUCUGACUCUGGUGAAUCUGCGAACUCUGCUGUAUACCUC", "note": "[A45U U48C U66C U78C]", "self-cleavage": 0.08},
      {"variant": "UAACAGGGGGCCACAGCAGAAGCGUUCACGUCGCAGCCCCUGUCUGACUCUGGUGAAUCUGCGAAUACAGCUGUAUAUCUC", "note": "[A45U U48C U67A U69A]", "self-cleavage": 0.28},
      {"variant": "UAACAGGGGGCCACAGCAGAAGCGUUCACGUCGCAGCCCCUGUCUGAUACUGGUGAAUCUGCGGAUUCUGCUGUAUACCUC", "note": "[A45U U49A A64G U78C]", "self-cleavage": 0.1},
      {"variant": "UAACAGGGGGCCACAGCAGAAGCGUUCACGUCGCAGCCCCUGUCUGAUCCUGGUGUAUCUGCGAAUUCUGCUGUAUACCUC", "note": "[A45U U49C A56U U78C]", "self-cleavage": 0.15},
      {"variant": "UAACAGGGGGCCACAGCAGAAGCGUUCACGUCGCAGCCCCUGUCUGAUCCUGGUGAAUAUGCGAAUUCUGCUGUAUAUCUC", "note": "[A45U U49C C59A]", "self-cleavage": 0.17},
      {"variant": "UAACAGGGGGCCACAGCAGAAGCGUUCACGUCGCAGCCCCUGUCUGAUCCUGGUCAAUCUGCGAGUUCUGCUGUAUAUCCC", "note": "[A45U U49C G55C A65G U80C]", "self-cleavage": 0.11},
      {"variant": "UAACAGGGGGCCACAGCAGAAGCGUUCACGUCGCAGCCCCUGUCUGAUCCUGGCGAAUCUGCGAAUUCUGCUGUAUAUCUC", "note": "[A45U U49C U54C]", "self-cleavage": 0.48},
      {"variant": "UAACAGGGGGCCACAGCAGAAGCGUUCACGUCGCAGCCCCUGUCUGAUCCUGGUGAAACUGCGAAUUCUGUUGUAUAUCUC", "note": "[A45U U49C U58A C71U]", "self-cleavage": 0.12},
      {"variant": "UAACAGGGGGCCACAGCAGAAGCGUUCACGUCGCAGCCCCUGUCUGAUCCUGGUGAAUCUGCGAAUUCAGCUGUAUAUCUC", "note": "[A45U U49C U69A]", "self-cleavage": 0.19},
      {"variant": "UAACAGGGGGCCACAGCAGAAGCGUUCACGUCGCAGCCCCUGUCUGAUCCUGGUGAAUCUGCGAAUUCGGCUGUAUAUCUC", "note": "[A45U U49C U69G]", "self-cleavage": 0.08},
      {"variant": "UAACAGGGGGCCACAGCAGAAGCGUUCACGUCGCAGCCCCUGUCUGAUGCUGGUGAAUCUGCGGAUUCUGCUGUAUAUCUU", "note": "[A45U U49G A64G C81U]", "self-cleavage": 0.1},
      {"variant": "UAACAGGGGGCCACAGCAGAAGCGUUCACGUCGCAGCCCCUGUCUGAUGCCGGUGAAUCUGCGAAUUCUGCUGUAUAUCUC", "note": "[A45U U49G U51C]", "self-cleavage": 0.2},
      {"variant": "UAACAGGGGGCCACAGCAGAAGCGUUCACGUCGCAGCCCCUGUCUGAUUCAGGUGGGUCUGCGAAUUCCGCUGUGUAUCAC", "note": "[A45U U51A A56G A57G U69C A75G U80A]", "self-cleavage": 0.11},
      {"variant": "UAACAGGGGGCCACAGCAGAAGCGUUCACGUCGCAGCCCCUGUCUGAUUCAGGUGAAUCUGCGGAUUCUGCUGUAUUUCAC", "note": "[A45U U51A A64G A77U U80A]", "self-cleavage": 0.34},
      {"variant": "UAACAGGGGGCCACAGCAGAAGCGUUCACGUCGCAGCCCCUGUCUGAUUCAGGUGAAUCUGCGUAUUCAGCUGUAUAUCUC", "note": "[A45U U51A A64U U69A]", "self-cleavage": 0.26},
      {"variant": "UAACAGGGGGCCACAGCAGAAGCGUUCACGUCGCAGCCCCUGUCUGAUUCAGGUGAACCUGCGAAUUCUGCUGUAUAUCCC", "note": "[A45U U51A U58C U80C]", "self-cleavage": 0.09},
      {"variant": "UAACAGGGGGCCACAGCAGAAGCGUUCACGUCGCAGCCCCUGUCUGAUUCAGGUGAAUCUGCGAAUUCCGCUGUAUAUCUC", "note": "[A45U U51A U69C]", "self-cleavage": 0.22},
      {"variant": "UAACAGGGGGCCACAGCAGAAGCGUUCACGUCGCAGCCCCUGUCUGAUUCCGGUGCAUCUGCGAAUUCUGCUGUAUAUCUC", "note": "[A45U U51C A56C]", "self-cleavage": 0.33},
      {"variant": "UAACAGGGGGCCACAGCAGAAGCGUUCACGUCGCAGCCCCUGUCUGAUUCCGGUGUACCUGCGAAUUCUGCUGUAUAUCUC", "note": "[A45U U51C A56U U58C]", "self-cleavage": 0.13},
      {"variant": "UAACAGGGGGCCACAGCAGAAGCGUUCACGUCGCAGCCCCUGUCUGAUUCCGGUGAGUCUGCGAAUUCUGCUGUAUAUCUC", "note": "[A45U U51C A57G]", "self-cleavage": 0.27},
      {"variant": "UAACAGGGGGCCACAGCAGAAGCGUUCACGUCGCAGCCCCUGUCUGAUUCCGGUGAAUCUGCGGAUACUGCUGUAUAUCUC", "note": "[A45U U51C A64G U67A]", "self-cleavage": 0.17}
    ]}
  ]
}
